Test results as given in PMC4336329 (PLoS ONE, 2015).
Among all 310,000 compounds or so, about 14,000 (4.5%) showed an effect of 50% or more. The effect is printed as a negative number. The list shows a part of the results.

What follows are compounds tested against human ether-à-go-go-related gene (hERG) potassium channel (human, UniProt Q12809) (assay: primary screen, population patch clamp on CHO cells stably expressing hERG).
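Note: peak tail current of the secondary pulse compared with the same well before compound.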

Chain of human ether-à-go-go-related gene (hERG) potassium channel (Q12809 whole entry, looked up): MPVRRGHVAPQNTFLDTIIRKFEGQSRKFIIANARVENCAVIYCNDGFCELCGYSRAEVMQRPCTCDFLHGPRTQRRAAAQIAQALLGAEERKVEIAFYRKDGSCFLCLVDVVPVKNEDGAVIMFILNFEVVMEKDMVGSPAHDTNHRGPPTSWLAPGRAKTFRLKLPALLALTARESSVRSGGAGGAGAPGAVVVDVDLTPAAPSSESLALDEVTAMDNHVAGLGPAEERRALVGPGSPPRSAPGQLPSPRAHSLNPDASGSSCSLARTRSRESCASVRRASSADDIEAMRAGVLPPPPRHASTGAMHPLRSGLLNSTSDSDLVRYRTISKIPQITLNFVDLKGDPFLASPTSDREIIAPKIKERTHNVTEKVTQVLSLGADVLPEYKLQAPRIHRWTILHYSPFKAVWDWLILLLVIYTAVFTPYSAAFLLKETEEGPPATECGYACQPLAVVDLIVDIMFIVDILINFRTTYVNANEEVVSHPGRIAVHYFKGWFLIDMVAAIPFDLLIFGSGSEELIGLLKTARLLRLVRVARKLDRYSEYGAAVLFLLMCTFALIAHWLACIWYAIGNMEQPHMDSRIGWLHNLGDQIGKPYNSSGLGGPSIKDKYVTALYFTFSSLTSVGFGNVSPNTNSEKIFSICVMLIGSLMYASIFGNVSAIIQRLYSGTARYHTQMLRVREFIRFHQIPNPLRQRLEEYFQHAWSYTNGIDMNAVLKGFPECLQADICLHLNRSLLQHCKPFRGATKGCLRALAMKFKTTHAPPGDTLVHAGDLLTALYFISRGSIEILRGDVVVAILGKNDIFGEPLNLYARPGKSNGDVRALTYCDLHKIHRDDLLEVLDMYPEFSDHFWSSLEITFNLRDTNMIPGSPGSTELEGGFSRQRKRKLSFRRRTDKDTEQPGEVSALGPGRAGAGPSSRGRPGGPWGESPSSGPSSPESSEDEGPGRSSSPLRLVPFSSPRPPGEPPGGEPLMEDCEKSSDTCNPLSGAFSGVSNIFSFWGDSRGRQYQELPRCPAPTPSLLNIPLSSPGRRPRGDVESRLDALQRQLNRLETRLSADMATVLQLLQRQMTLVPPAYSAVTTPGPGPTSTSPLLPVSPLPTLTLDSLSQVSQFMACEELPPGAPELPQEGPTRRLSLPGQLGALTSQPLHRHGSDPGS

| SMILES | hERG current change (%, negative = inhibition) at 10uM [%] |
| --- | --- |
| CCOC(=O)CC1=Nc2ccccc2NC(=O)C1 | 2.57 |
| Cc1oc(-c2ccc(Cl)cc2)nc1CN1CCC(C(=O)NCCCN2CCCC2=O)CC1 | -33.9 |
| CCn1c(SCC(=O)N2CCOCC2)nc2oc3c(Cl)cc(Cl)cc3c(=O)c2c1=O | -49 |
| COc1cc2c(cc1NC(=O)CN1C(=O)NC3(CCc4ccccc43)C1=O)oc1ccccc12 (stereo not drawn) | 7.1 |
| O=C(COc1ccc(F)cc1)c1c(O)cc(O)cc1O | 3.74 |
| C[C@H]1CN(C2CCCCC2)C(=O)[C@@H]1CC(=O)NCc1ccccc1 | -6.72 |
| Cc1ccc(C)c(NC(=O)C2CCC(C)(C(=O)O)C2(C)C)c1 (stereo not drawn) | -18.4 |
| CC(=O)Nc1ccc(NC(=O)C(=O)c2cn(CC(=O)N3CCCC3)c3ccccc23)cc1 | 18 |
| COC(=O)c1c(C)[nH]c(C)c1-c1ccc([N+](=O)[O-])cc1 | 2.12 |
| Cc1cccn2c(=O)nc(SCC(=O)N3CCC(C)CC3)nc12 | -39.5 |
| CCOc1ccccc1NC(=O)C1CCN(S(C)(=O)=O)CC1 | 1.63 |
| Cn1nnnc1SCC(=O)NC(C)(C)C | -3.45 |
| Cc1cc(C)c(C(N)=O)c(Nc2ccc3c(c2)OCCO3)n1 | 0.162 |
| CC(C)(C)c1cc(C(=O)N2CCN(c3ncccn3)CC2)ccn1 | -11.7 |
| O=C(c1cc2ccccc2o1)N1CCN(S(=O)(=O)/C=C/c2ccccc2)CC1 | -30.8 |
| OCCCNc1c2ccccc2nc2ccccc12 | -65.6 |
| O=S(=O)(NCCc1csc(-c2cccnc2)n1)c1cccs1 | -13.7 |
| O=C(NCCCl)C1Cc2c(ccc3ccccc23)O1 (stereo not drawn) | 7.97 |
| CCSc1nnc(NC(=O)C2CCCCC2C(=O)O)s1 (stereo not drawn) | 7.05 |

| SMILES | hERG current change (%, negative = inhibition) at 10uM [%] |
| --- | --- |
| O=S1(=O)N=C(SCCO)c2ccccc21 | 2.57 |
| COc1cccc(CNC(=O)c2cccc(NC(=O)C3=C(C)OCCS3)c2)c1 | -24.1 |
| CCOc1ccc(NC(=O)c2cccnc2SC)cc1 | 21 |
| Cc1nnsc1C(=O)N/N=C/c1ccc(OC(F)(F)F)cc1 | 19.9 |
| O=C(CCC1CCCCC1)Nc1c2c(nn1-c1ccc(F)cc1)CS(=O)C2 (stereo not drawn) | -12.5 |
| Cc1cccc(NC(=O)CN2CCOCC2)c1C | 13.9 |
| O=C(O)c1ccc(COCC(F)(F)C(F)F)o1 | 16 |
| COCCN1C(=O)c2[nH]nc(-c3ccccc3O)c2C1c1ccc(OC)cc1 (stereo not drawn) | -38.5 |
| COc1ccc2c(c1)c(C(=O)N/N=C/c1ccc(Cl)cc1)c(C)n2C | -58.6 |
| CN(C)S(=O)(=O)c1cccc(C(=O)Nc2ccc(N3CCOCC3)cc2)c1.Cl | 0.0464 |
| C=CCSc1nnc2n(CCc3ccccc3)c(=O)c3c4c(sc3n12)COC(C)(C)C4 | 4.1 |
| COc1ccc(C2C(C(C)=O)=C(O)C(=O)N2c2nccs2)cc1OC (stereo not drawn) | -10.5 |
| CCCCNC(=S)N=Nc1c(O)n(Cc2ccccc2)c2ccccc12 | -12 |
| CCOC(=O)c1sc(N/N=C/c2ccc(N(C)C)cc2)nc1C | 13.9 |
| COc1cc2c(cc1NC(=O)C(C)OC(=O)c1ccc(S(=O)(=O)Nc3ccccc3Cl)cc1)oc1ccccc12 (stereo not drawn) | 21.8 |
| CC(=O)N1CCOc2ccc(S(=O)(=O)N3CCC(C(=O)Nc4cc(C)cc(C)c4)CC3)cc21 | -16.2 |
| O=C(OCc1cc(Cl)ccc1OC(F)F)c1cncc(Br)c1 | 5.33 |
| COc1ccccc1NC(=O)CSc1nc(SC)ns1 | -14.5 |
| CC(=O)Nc1ccc(N(C(=O)c2ccco2)C(C(=O)NC2CCCC2)c2ccc(N3CCOCC3)cc2)cc1 (stereo not drawn) | 10.8 |

| SMILES | hERG current change (%, negative = inhibition) at 10uM [%] |
| --- | --- |
| CCCc1cc(=O)oc2cc(OCC(=O)NCCCN3CCOCC3)ccc12 | -17.9 |
| COc1cc(Cl)c(C)cc1NC(=O)CSc1ccccc1 | 5.58 |
| CCOC(=O)C1C(=O)CC(=O)CC1CC(C)SCC (stereo not drawn) | 19.7 |
| O=C(Cn1c(=O)sc2ccccc21)Nc1ccc(S(=O)(=O)N2CCCC2)cc1 | -3.11 |
| Cl.O=[N+]([O-])c1cc(S(=O)(=O)NCCCN2CCOCC2)ccc1Cl | -10.2 |
| CCCCn1c(SCC(=O)NC2CCCC2)nc2ccccc2c1=O | -4.43 |
| O=C(c1ccc(CN2CCOCC2)cc1)N1CCN(c2ccccc2)CC1 | 3.02 |
| Cc1ccc(N2C(=O)[C@@H]3[C@H](C2=O)[C@H]2C=CC=NN2[C@@H]3C(=O)Nc2ccccc2)cc1 | 7.5 |
| COc1ccc(NC(=O)CSc2nc3ccccc3nc2N2CCCC2)cc1 | -0.542 |
| CN1CCN(C(=S)Nc2cccc(Cl)c2)CC1 | 1.82 |
| O=C(NC(=S)N1CCN(c2ccc(Cl)cc2[N+](=O)[O-])CC1)c1cccs1 | -30 |
| COC(=O)CCCC1=CC2=CC(=O)C(C)(OC(=O)c3cccs3)C(=O)C2=CN1CC1CC1 (stereo not drawn) | 9.4 |
| Cc1cccc(N2C(=S)N=C(Nc3c(C)cccc3C)C23CCOC(C)(C)C3)c1 (stereo not drawn) | 25.7 |
| Nc1ccc(S(=O)(=O)NNC(=O)C(=O)NNc2ccccc2)cc1 | 3.21 |
| O=C(Nc1c[nH]c(=O)[nH]c1=O)c1cccc(F)c1 | 7.17 |
| Cc1nn(Cc2ccccc2)c(Cl)c1C(=O)OC(C)C(=O)Nc1ccc(F)cc1Cl (stereo not drawn) | 11.2 |
| O=C(Cn1c(=O)n(CC2CCCO2)c(=O)c2ccccc21)c1ccccc1 (stereo not drawn) | 4.49 |
| O=C(c1ccccc1F)N1CCCC(C(=O)N2CCc3ccccc3C2)C1 (stereo not drawn) | -8.64 |
| Cc1cccc(C)c1NC(=O)N1C2CCC1CC(O)(c1cccnc1)C2 (stereo not drawn) | 20.2 |
